Results taken from US20130064788A1 (ELEVEN BIOTHERAPEUTICS, published 2013).

T1: pre-assembled IL-17RB-IL-25 complex (IL-25 captured by immobilised IL-17RB) (human, UniProt Q9NRM6 18-292; Q9H293 33-177, C-terminal biotin on BirA tag)
T1 construct: One receptor and one IL-25 dimer on the SPR chip
T1 sequence 1: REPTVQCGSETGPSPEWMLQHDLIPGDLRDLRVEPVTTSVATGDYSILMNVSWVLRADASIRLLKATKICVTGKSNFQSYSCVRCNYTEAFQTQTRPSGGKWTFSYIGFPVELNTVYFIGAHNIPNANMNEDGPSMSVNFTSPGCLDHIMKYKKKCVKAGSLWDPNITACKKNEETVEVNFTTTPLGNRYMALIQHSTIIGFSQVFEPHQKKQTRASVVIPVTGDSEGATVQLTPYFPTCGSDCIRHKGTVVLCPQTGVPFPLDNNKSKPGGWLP
T1 sequence 2: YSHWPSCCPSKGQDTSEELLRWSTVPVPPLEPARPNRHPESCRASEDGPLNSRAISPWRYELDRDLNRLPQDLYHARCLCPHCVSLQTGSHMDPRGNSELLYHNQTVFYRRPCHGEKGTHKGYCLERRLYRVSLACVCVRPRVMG

T2: pre-assembled IL-17RA-IL-17A complex (IL-17A captured by immobilised IL-17RA) (human, UniProt Q96F46 32-317; Q16552 25-155, C-terminal biotin on BirA tag)
T2 construct: For tags see m1 and m3
T2 sequence 1: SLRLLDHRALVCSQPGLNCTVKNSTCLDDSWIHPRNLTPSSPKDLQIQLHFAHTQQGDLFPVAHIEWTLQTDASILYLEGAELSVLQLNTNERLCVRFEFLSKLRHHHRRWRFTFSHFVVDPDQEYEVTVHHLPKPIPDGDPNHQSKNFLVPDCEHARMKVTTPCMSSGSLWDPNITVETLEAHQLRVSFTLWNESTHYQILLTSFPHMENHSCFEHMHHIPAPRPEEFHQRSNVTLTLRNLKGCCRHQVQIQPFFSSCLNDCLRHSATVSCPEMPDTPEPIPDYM
T2 sequence 2: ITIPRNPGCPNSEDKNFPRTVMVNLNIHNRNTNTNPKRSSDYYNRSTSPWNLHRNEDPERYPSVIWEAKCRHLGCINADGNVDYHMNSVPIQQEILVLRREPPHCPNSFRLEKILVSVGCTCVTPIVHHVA

T3: pre-assembled IL-17RC-IL-17A complex (IL-17A captured by immobilised IL-17RC) (human, UniProt Q8NAC3 21-538; Q16552 25-155, C-terminal biotin on BirA tag)
T3 construct: One receptor and one IL-17A dimer on the SPR chip; also called existing IL-17RC-IL-17A complex
T3 sequence 1: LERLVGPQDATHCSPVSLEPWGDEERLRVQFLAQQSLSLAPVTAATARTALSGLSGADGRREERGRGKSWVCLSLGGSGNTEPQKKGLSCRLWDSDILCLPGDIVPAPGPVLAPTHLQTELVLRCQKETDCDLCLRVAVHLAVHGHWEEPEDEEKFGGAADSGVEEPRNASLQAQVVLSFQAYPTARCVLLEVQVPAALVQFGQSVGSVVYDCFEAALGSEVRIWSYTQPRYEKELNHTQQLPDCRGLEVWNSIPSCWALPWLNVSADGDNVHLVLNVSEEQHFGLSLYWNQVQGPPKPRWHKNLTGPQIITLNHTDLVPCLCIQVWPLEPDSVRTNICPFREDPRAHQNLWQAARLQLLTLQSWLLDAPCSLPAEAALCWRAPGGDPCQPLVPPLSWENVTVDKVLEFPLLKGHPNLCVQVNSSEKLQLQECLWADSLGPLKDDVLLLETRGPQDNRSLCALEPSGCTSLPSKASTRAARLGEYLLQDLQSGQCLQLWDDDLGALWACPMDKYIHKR
T3 sequence 2: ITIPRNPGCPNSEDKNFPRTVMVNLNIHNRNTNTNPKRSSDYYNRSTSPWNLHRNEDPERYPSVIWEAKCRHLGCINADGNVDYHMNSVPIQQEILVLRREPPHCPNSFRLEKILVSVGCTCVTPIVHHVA

T4: IL-17RC extracellular domain (human, UniProt Q8NAC3 21-538)
T4 construct: Expressed in 293S GnTI- cells with and without a C-terminal BirA tag; An additional C-terminal Fc tag was cleaved by 3C protease
T4 sequence: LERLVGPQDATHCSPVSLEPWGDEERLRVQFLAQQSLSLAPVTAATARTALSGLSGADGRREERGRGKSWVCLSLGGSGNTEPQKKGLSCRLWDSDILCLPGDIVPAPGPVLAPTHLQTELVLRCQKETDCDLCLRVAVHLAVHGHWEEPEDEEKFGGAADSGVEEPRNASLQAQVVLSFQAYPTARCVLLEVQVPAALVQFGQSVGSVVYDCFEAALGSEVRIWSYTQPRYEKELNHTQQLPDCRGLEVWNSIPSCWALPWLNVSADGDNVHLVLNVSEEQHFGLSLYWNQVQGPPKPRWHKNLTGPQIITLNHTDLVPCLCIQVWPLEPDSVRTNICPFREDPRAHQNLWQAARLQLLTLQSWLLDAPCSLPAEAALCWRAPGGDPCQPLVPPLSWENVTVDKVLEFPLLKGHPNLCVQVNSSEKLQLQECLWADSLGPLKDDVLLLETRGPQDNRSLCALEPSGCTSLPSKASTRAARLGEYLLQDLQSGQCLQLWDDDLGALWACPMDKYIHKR

B1: human IL-17RA extracellular domain (ECD) (receptor)
chain: not shown
notes: For SPR it was made with and without a C-terminal BirA ligase tag: the biotinylated form was immobilised and the other was injected; For the crystal it was treated with endoglycosidase H and lysine-methylated; also called IL-17RA ECD; IL-17RA ectodomain

Key:
[1] = molecular target: T1, pre-assembled IL-17RB-IL-25 complex …; experiment: SPR; second receptor injected over IL-25 captured by immobilised IL-17RB
Method: IL-17RA has been implicated in IL-17E (also known as IL-25) signaling together with IL-17RB (23). IL-25 promotes Th2 inflammatory responses and shares approximately ˜20% identity with IL-17A and IL-17F. […] We hypothesized that IL-17RA may only bind IL-25 once IL-25 is captured by IL-17RB. To test this hypothesis, we immobilized IL-17RB on an SPR chip, captured IL-25 and measured the affinity of IL-17RA for the IL-17RB-IL-25 complex. […] At concentrations up to 50 μM, no interaction could be observed between IL-17RA and IL-25, or between the IL-17RB-IL-25 complex and a second IL-17RB molecule.
Binding affinities were calculated via surface plasmon resonance (SPR) on a BIACORE® T100 (GE Healthcare). C-terminally biotinylated IL-17 receptors were coupled to immobilized streptavidin on either an SA or CM4-sensor chip (GE Healthcare). An irrelevant, biotinylated protein was captured at equivalent immobilization densities to control flow cells. To measure the second receptor binding interaction, the cytokine was first captured to the immobilized receptor, followed by the second receptor injection. Low coupling densities (200-400 RU) and excess cytokine concentrations were used to optimize the number of cytokine homodimers bound to a single receptor. […] Data was analyzed using BIACORE® T100 evaluation software Version 2.0 (GE Healthcare). […]

[2] = molecular target: T2, pre-assembled IL-17RA-IL-17A complex …; experiment: SPR; second receptor injected over IL-17A captured by immobilised IL-17RA
Text: (§1) Whilst others have reported the binding affinities of IL-17RA and IL-17RC for IL-17A and IL-17F (7, 22), we considered it pertinent to assess the binding affinity of the second receptor-binding site. The strategy was to immobilize one receptor on the SPR chip at a low coupling density in order to minimize possible homo-dimerization (e.g. cross-linking) of the receptors on the chip. The dimeric IL-17 cytokine was then captured by this receptor so that each receptor would be bound to one dimeric IL-17 ligand, leaving an exposed and accessible second receptor-binding site. The second receptor was subsequently passed over the preformed receptor-cytokine complexes to measure the affinity of the second receptor-binding event. In this fashion, the complex was assembled in a stepwise manner and each of the binding affinities was measured (FIG. 3).
(§2) Binding affinities were calculated via surface plasmon resonance (SPR) on a BIACORE® T100 (GE Healthcare). C-terminally biotinylated IL-17 receptors were coupled to immobilized streptavidin on either an SA or CM4-sensor chip (GE Healthcare). An irrelevant, biotinylated protein was captured at equivalent immobilization densities to control flow cells. […] Data was analyzed using BIACORE® T100 evaluation software Version 2.0 (GE Healthcare). […]

[3] = molecular target: T3, pre-assembled IL-17RC-IL-17A complex …; experiment: SPR; second receptor injected over IL-17A captured by immobilised IL-17RC
Text: as §1, §2

[4] = molecular target: B1; experiment: SPR, comparison of the two KD values
Method: Binding affinities were calculated via surface plasmon resonance (SPR) on a BIACORE® T100 (GE Healthcare). C-terminally biotinylated IL-17 receptors were coupled to immobilized streptavidin on either an SA or CM4-sensor chip (GE Healthcare). An irrelevant, biotinylated protein was captured at equivalent immobilization densities to control flow cells. To measure the second receptor binding interaction, the cytokine was first captured to the immobilized receptor, followed by the second receptor injection. Low coupling densities (200-400 RU) and excess cytokine concentrations were used to optimize the number of cytokine homodimers bound to a single receptor. The surface was regenerated using 3 M MgCl₂ between each cycle. For kinetic experiments, a flow rate of 50 μl/min was used. Data was analyzed using BIACORE® T100 evaluation software Version 2.0 (GE Healthcare). Affinities are reported as the mean of at least two independent experiments±the standard error of the mean (s.e.m.).

[5] = molecular target: B1; experiment: SPR, Biacore T100; biotinylated receptor on streptavidin chip, cytokine injected
Text: as §1, §2

[6] = molecular target: T4, IL-17RC extracellular domain; experiment: as above
Text: as §1, §2

Binder | Kd [1] [nM] | Kd [2] [nM] | Kd [3] [nM] | fold higher affinity than IL-17F [4] [fold] | Kd [5] [nM] | Kd [6] [nM]
B1 | 14100 | 3100 | 162 |  |  | 
IL-17A homodimer (ligand, Expressed by High Five cells with a C-terminal hexa-His tag; also called IL-17A/A; not shown: C-terminal hexa-His tag) not shown |  |  |  | ~100 | 2.8 | 1.2
